Test results from PubChem BioAssay AID1745845 (National Center for Advancing Translational Sciences (NCATS), 2022).
Screen size: about 360,000 compounds; about 2,600 (0.72%) were called active. The inconclusive results got no clear call from the source; some entries with a clear call stand among them for comparison. Calls follow the shape of the dose curve; as a rule, active = well fitted inhibition curve with a large enough effect; inconclusive = small, poorly fitted or top-dose-only effect; inactive = no such curve, though single readings can be large or run the other way. Potencies beside an inconclusive call are fits to weak or partial responses and may not hold up.

Test: Primary qHTS for Inhibitors of ATXN expression; also: nearly all actives have a fitted effect of over 55% in size
Conditions: HEK-293 ATXN2-luciferase reporter, luminescence, 24 h; activity change, negative = inhibition: at 57 µM (top of the series)
Excerpt: University of Utah School of Medicine, Salt Lake City, Utah
Spinocerebellar ataxia type 2 (SCA2) is a multisystem neurodegenerative disease caused by a dominantly acting mutation leading to expansion of a polyQ domain in the ataxin-2 protein (ATXN2). SCA2 patients develop progressive ataxia and later lose function in other neuronal systems. Prominent parkinsonian signs develop in some patients. Like many neurodegenerative disorders, no symptomatic or disease-modifying treatments are known.
The primary objective of the proposed research is to identify compounds inhibiting ATXN2 expression and to test them for efficacy in SCA2 mouse models. We have developed a cell-based assay paired with an in vivo mouse model using identical luciferase expression constructs. This approach takes advantage of an ATXN2-luciferase transgene, with the luciferase gene flanked by the upstream and downstream portions of the ATXN2 gene. Here we describe a 5-7 dose quantitative high thoroughput screen (qHTS) for compounds lowering ATXN2 expression. We screened the NIH Molecular Libraries Small Molecule Repository (MLSMR) and NCGC's mechanistically annotated (MIPE) and drug repurposing (NPC) collections of compounds for lowering expression of an ATXN2-luciferase reporter in HEK-293 cells. The assay is a multiplexed cell viability assay to ensure target reduction in the absence of cytotoxicity. Secondary qHTS assays included a CMV-luciferase reporter expressed in HEK-293 cells as well as a biochemical assay using recombinant luciferase to detect inhibitors of the reporter enzyme. Compounds that inhibit ATXN2 expression but is not cytotoxic were selected for confirmatory and secondary screens.
PROTOCOL TABLE (as described by Inglese J, Shamu CE and Guy RK. 2007)
SEQUENCE No. (e.g., 1, 2, 3, etc.); […] (e.g., Cells, Incubation, Reagent, etc.); VALUE; DESCRIPTION.
1; Cells; 4 uL; white, solid bottom, 1536-well Greiner assay plate.
2; Incubation; 2 hr; 37 degree C in 5% humidified CO2.
3; Compounds; 23 nL; Kalypsis pintool (Wako USA) equipped with a 1536-well pin head.
4; Incubation; 24 hr; 37 degree C in 5% humidified CO2.
5; Reagent; 1 uL; Gly-Phe-7-Amino-4-trifluoromethylcoumarin.
6; Incubation; 30 min; 37 degree C in 5% humidified CO2.
7; Detection; Fluorescence; ViewLux plate reader (PerkinElmer).
8; Reagent; 3 uL; SteadyGlo luciferase solution (Promega).
9; Incubation; 5 min; room temperature.
10; Detection; Luminescence; ViewLux plate reader (PerkinElmer).
NOTES (numbers refer to Sequence numbers above)
1. S2 cells expressing ATXN2-luciferase reporter were suspended in phenol-red free DMEM and dispensed in assay plates using a Multidrop Combi dispenser (Thermo Fisher Scientific).
2. Assay plates were incubated. Evaporation was prevented by covering assay plates with metal lids containing holes to allow gas diffusion.
3. Compounds were added in a dose response manner with the final concentrations of 57, 11.4, 2.28, 0.46, 0.091, 0.018, 0.0037 uM. Vehicle-only plates, with DMSO being pin-transferred to columns 5-48, were inserted uniformly at the beginning and the end of each library to monitor and record any shifts in assay performance.
5. 125 uM Gly-Phe-7-Amino-4-trifluoromethylcoumarin (MP Biomedicals) working concentration was used at a final concentration of 25 uM.
7. To assess cell viability; the assay plates were read using the ViewLux high-throughput CCD imager (PerkinElmer), wherein single end-point fluorescence measurement was acquired (excitation 405/10; emission 540/25 nm).
8. Detection reagent SteadyGlo Luciferase (Promega) was added to the assay plate.
10. Luminescence is then measured on the ViewLux imager equipped with a clear emission filter using a 2 sec exposure. All screening operations were performed on a fully integrated robotic system (Kalypsys) containing one RX-130 and two RX-90 anthropomorphic robotic arms (Staubli).
[…]
% is scaled to controls: 0 for no effect and ±100 for the full control effect; potency is read from the fitted curve at half-maximal effect; tags tell the direction and shape of the fitted curve.

Q: For [O-]c1ccccc1-[n+]1c(-c2ccccc2)cc(-c2ccccc2)cc1-c1ccccc1, which Potency is on record?
A: inconclusive: 12.6 µM [inhibitor, partial curve]

Q: With CCOC(=O)[C@]12Cc3ccccc3[C@H]1N(Cc1ccccc1)C(=O)c1ccccc12 as the molecule, how does the Potency read?
A: inconclusive: 39.8 µM [inhibitor, single point]

Q: With CC1=CC2/C=C(\C)CCC(O)C(O)/C=C/C(=O)C23C(=O)NC(CC(C)C)C3C1C (stereo not given) as the molecule, how does the Potency read?
A: inconclusive: 4.23 µM [inhibitor, full curve, poor fit]

Q: With c1ccc2c(c1)[IH]c1ccccc1-2 as the molecule, how does the Potency read?
A: active: 7.94 µM

Q: Which Potency does the source give for O=c1[nH]c2ccccc2n1C1CCN(C(CCc2ccccc2)c2nnnn2-c2ccc3c(c2)OCCO3)CC1 (stereo not given) here?
A: active: 7.94 µM

Q: With COC[C@H]1OC(=O)c2coc3c2[C@@]1(C)C1=C(C3=O)C2CCC(=O)[C@@]2(C)C[C@H]1OC(C)=O (stereo not given in full) as the molecule, how does the Potency read?
A: inconclusive: 34.3 µM [inhibitor, partial curve]

Q: For O=C(CCCN1CCC2(CC1)C(=O)NCN2c1ccccc1)c1ccc(F)cc1, which Potency is on record?
A: inconclusive: 6.31 µM [inhibitor, full curve]

Q: With Cc1cccc(C)c1-n1nnnc1C(c1cccs1)N1CCC2(CC1)C(=O)NCN2c1ccccc1 (stereo not given) as the molecule, how does the Potency read?
A: inconclusive: 39.8 µM [inhibitor, single point]

Q: For COc1ccc(C(c2nnnn2-c2ccc(OC)cc2)N2CCC(n3c(=O)[nH]c4ccccc43)CC2)cc1 (stereo not given), which Potency is on record?
A: inconclusive: 28.2 µM [inhibitor, single point]

Q: Which “activity change, negative = inhibition” value does the source give for CN1C(=O)N(C)C(=O)C2(Cc3cc(NC(=O)c4ccccc4)ccc3N3CCCC32)C1=O (stereo not given) here?
A: inactive: -9.02%

Q: For COC(=O)C1=C(c2ccc(Cl)c(C(F)(F)F)c2)C[C@@H]2CC[C@H]1N2C(=O)N1CCC(O)(c2ccc(Cl)cc2)CC1, which Potency is on record?
A: inconclusive: 39.8 µM [inhibitor, single point]

Q: With O=[N+]([O-])c1ccc(Cl)c([N+](=O)[O-])c1 as the molecule, how does the Potency read?
A: inconclusive: 39.8 µM [inhibitor, single point]

Q: Which “activity change, negative = inhibition” value does the source give for Cc1ccc(-n2c(O)c(C=NCCN3CCOCC3)c(=O)[nH]c2=O)cc1 here?
A: inactive: 2.52%

Q: For CC(C)Oc1cccnc1N(C)C1CCN(Cc2ccccc2)CC1, which “activity change, negative = inhibition” value is on record?
A: inactive: -9.2%

Q: For CC1=C(N2CC2)C(=O)C(CO)=C(N2CC2)C1=O, which Potency is on record?
A: active: 0.119 µM

Q: For O=c1[nH]c(=O)n(-c2cccc(Cl)c2)c(O)c1/C=N/c1ccccn1, which “activity change, negative = inhibition” value is on record?
A: inactive: -2.38%

Q: Which Potency does the source give for C[C@]12Cc3nonc3C[C@@H]1CC[C@@H]1[C@@H]2CC[C@@]2(C)[C@H]1CC[C@]2(C)O here?
A: inconclusive: 11.2 µM [inhibitor, partial curve, poor fit]

Q: For C=C1CC[C@@]2(O)[C@H]3Cc4ccc(O)c5c4[C@@]2(CCN3CC2CC2)[C@H]1O5, which Potency is on record?
A: inactive

Q: Which Potency does the source give for COc1cc(C(=O)N/N=C/C23CC[C@@H](O)CC2(O)CC[C@@H]2[C@@H]3CCC3(C)C(C4=CC(=O)OC4)CCC23O)ccc1O (stereo not given in full) here?
A: inconclusive: 39.8 µM [inhibitor, single point]

Q: With C[C@H]1CCC[C@@H](O)CCC/C=C/c2cc(O)cc(O)c2C(=O)O1 as the molecule, how does the Potency read?
A: active: 14.1 µM

Q: Which Potency does the source give for COC(=O)C1=C(c2ccc3ccccc3c2)C[C@@H]2CC[C@H]1N2C(=O)NCc1ccc(F)cc1 here?
A: inconclusive: 31.6 µM [inhibitor, single point]

Q: With ClCCN(CCCl)c1ccc(-n2cnc3c(Cl)ncnc32)cc1 as the molecule, how does the Potency read?
A: active: 15.8 µM

Q: Which Potency does the source give for CCCCCCC(C)(C)c1ccc([C@@H]2C[C@H](O)CC[C@H]2CCCO)c(O)c1 here?
A: active: 14.1 µM

Q: With NC(=O)c1c(NC(=O)c2ccc(S(=O)(=O)N(CCCl)CCCl)cc2)sc2c1CCCCC2 as the molecule, how does the Potency read?
A: inconclusive: 2.51 µM [inhibitor, partial curve, poor fit]

Q: With CC[C@H]1CN(C)C[C@@]2(C(=O)OC)Cc3c([nH]c4ccccc34)C(=O)C[C@@H]12 as the molecule, how does the “activity change, negative = inhibition” value read?
A: inactive: 10.5%

Q: Which Potency does the source give for Clc1ccc2[nH]c3c(c2c1)CCNC3 here?
A: inconclusive: 15.8 µM [inhibitor, partial curve, poor fit]

Q: For CC(O)(CS(=O)(=O)c1ccc(F)cc1)C(=O)Nc1ccc(C#N)c(C(F)(F)F)c1 (stereo not given), which Potency is on record?
A: inconclusive: 21.7 µM [inhibitor, partial curve, poor fit]

Q: With COc1ccc(CN2CC=C(c3ccc(F)cc3)CC2)cc1Br as the molecule, how does the Potency read?
A: inconclusive: 6.31 µM [inhibitor, full curve]

Q: For CCN1CCN(C(=O)Cc2ccc(Nc3ncc(F)c(Nc4ccc(C(=O)Nc5ccccc5Cl)cc4)n3)cc2)CC1, which Potency is on record?
A: active: 24.3 µM

Q: For COC(=O)C1=C(c2ccc(-c3ccccc3)c(F)c2)C[C@@H]2CC[C@H]1N2C(=O)NCc1ccco1, which Potency is on record?
A: inconclusive: 28.2 µM [inhibitor, single point]

Q: Which Potency does the source give for CC(C)(O)/C=C/C(=O)[C@](C)(O)C1[C@H](O)C[C@@]2(C)C3CC=C4C(C[C@H](O)[C@@H](O)C4(C)C)[C@]3(C)C(=O)C[C@]12C (stereo not given in full) here?
A: inconclusive: 1.12 µM [inhibitor, full curve]

Q: With O=C1Nc2ccccc2/C1=C/c1cnc[nH]1 as the molecule, how does the Potency read?
A: inconclusive: 20 µM [inhibitor, partial curve, poor fit]

Q: Which Potency does the source give for CC(=O)OC1C2CCCC1C(N1CCCC1)CC2 (stereo not given) here?
A: inactive

Q: With NC1(C(=O)O)CCCc2ccc(N(CCCl)CCCl)cc21 (stereo not given) as the molecule, how does the Potency read?
A: inconclusive: 4.47 µM [inhibitor, partial curve]

Q: With C[C@]12CCC3C(CCC4=CC(O)CC[C@@]43/C=N/O)C1(O)CCC2C1=CC(=O)OC1 (stereo not given in full) as the molecule, how does the activity change, negative = inhibition read?
A: inconclusive: -85.1% [inhibitor]

Q: With Cc1[nH]c2ccc(OC(F)(F)F)cc2c1CCNCc1cccc([N+](=O)[O-])c1 as the molecule, how does the Potency read?
A: inconclusive: 17.8 µM [inhibitor, partial curve]

Q: With C[C@]12CC[C@H](O)C[C@H]1CC[C@@H]1[C@@H]2CC[C@]2(C)[C@@H](C3=CC(=O)OC3)CC[C@]12O as the molecule, how does the Potency read?
A: active: 0.316 µM

Q: Which “activity change, negative = inhibition” value does the source give for COC(=O)C1=C(c2ccc(C(C)=O)cc2)C[C@@H]2CC[C@H]1N2C(=O)NC1CCCCC1 here?
A: inactive: -7.13%

Q: Which Potency does the source give for COc1cc2c(cc1OC)C1C(=O)c3ccc4c(c3OC1CO2)CC(C(C)C)O4 (stereo not given) here?
A: inconclusive: 2.82 µM [inhibitor, partial curve, poor fit]

Q: For COc1cccc(C(c2nnnn2Cc2ccccc2)N2CCC(n3c(=O)[nH]c4ccccc43)CC2)c1OC (stereo not given), which Potency is on record?
A: inconclusive: 17.8 µM [inhibitor, partial curve, poor fit]
